Data: patent publication US10640563B2, “Anti-B7-H3 antibodies and antibody drug conjugates” (AbbVie Inc., priority 2016, dated 2020)
Positions count from the first letter of the chain named.

B1: huAb3v2.5-KZ (conjugate)
heavy: EVQLVQSGAEVKKPGSSVKVSCKASGYTFSSYWMHWVRQAPGQGLEWIGLIHPESGSTNYNEMFKNRATLTVDRSTSTAYMELSSLRSEDTAVYYCAGGGRLYFDYWGQGTTVTVSSASTKGPSVFPLAPSSKSTSGGTAALGCLVKDYFPEPVTVSWNSGALTSGVHTFPAVLQSSGLYSLSSVVTVPSSSLGTQTYICNVNHKPSNTKVDKKV[letters of human IgG1 Fc with changes omitted]
light: DIVMTQSPLSLPVTPGEPASISCRSSQSLVHSNRDTYLRWYLQKPGQSPQLLIYKVSNRFSGVPDRFSGSGSGTDFTLKISRVEAEDVGVYYCSQSTHVPYTFGGGTKVEIKRTVAAPSVFIFPPSDEQLKSGTASVVCLLNNFYPREAKVQWKVDNALQSGNSQESVTEQDSKDSTYSLSSTLTLSKADYEKHKVYACEVTHQGLSSPVTKSFNRGEC
B2: huAb3v2.6-ZZ (conjugate)
heavy: EVQLVQSGAEVKKPGSSVKVSCKASGYTFSSYWMHWVRQAPGQGLEWIGLIHPESGSTNYNEMFKNRATLTVDRSTSTAYMELSSLRSEDTAVYYCAGGGRLYFDYWGQGTTVTVSSASTKGPSVFPLAPSSKSTSGGTAALGCLVKDYFPEPVTVSWNSGALTSGVHTFPAVLQSSGLYSLSSVVTVPSSSLGTQTYICNVNHKPSNTKVDKKV[letters of human IgG1 Fc with changes omitted]
light: B1 light with R34Q
B3: huAb3v2.6-ZT (conjugate)
heavy: EVQLVQSGAEVKKPGSSVKVSCKASGYTFSSYWMHWVRQAPGQGLEWIGLIHPESGSTNYNEMFKNRATLTVDRSTSTAYMELSSLRSEDTAVYYCAGGGRLYFDYWGQGTTVTVSSASTKGPSVFPLAPSSKSTSGGTAALGCLVKDYFPEPVTVSWNSGALTSGVHTFPAVLQSSGLYSLSSVVTVPSSSLGTQTYICNVNHKPSNTKVDKKV[letters of human IgG1 Fc with changes omitted]
light: B1 light with R34Q
B4: huAb13v1-WD (conjugate)
heavy: EVQLQESGPGLVKPSETLSLTCAVTGYSITSGYSWHWIRQFPGNGLEWMGYIHSSGSTNYNPSLKSRISISRDTSKNQFFLKLSSVTAADTAVYYCAGYDDYFEYWGQGTTVTVSSASTKGPSVFPLAPSSKSTSGGTAALGCLVKDYFPEPVTVSWNSGALTSGVHTFPAVLQSSGLYSLSSVVTVPSSSLGTQTYICNVNHKPSNTKVDKKV[letters of human IgG1 Fc with changes omitted]
light: DIQMTQSPSSLSASVGDRVTITCKASQNVGFNVAWYQQKPGKSPKALIYSASYRYSGVPSRFSGSGSGTDFTLTISSLQPEDFAEYFCQQYNWYPFTFGQGTKLEIKRTVAAPSVFIFPPSDEQLKSGTASVVCLLNNFYPREAKVQWKVDNALQSGNSQESVTEQDSKDSTYSLSSTLTLSKADYEKHKVYACEVTHQGLSSPVTKSFNRGEC
B5: huAb13v1-SR (conjugate)
heavy: EVQLQESGPGLVKPSETLSLTCAVTGYSITSGYSWHWIRQFPGNGLEWMGYIHSSGSTNYNPSLKSRISISRDTSKNQFFLKLSSVTAADTAVYYCAGYDDYFEYWGQGTTVTVSSASTKGPSVFPLAPSSKSTSGGTAALGCLVKDYFPEPVTVSWNSGALTSGVHTFPAVLQSSGLYSLSSVVTVPSSSLGTQTYICNVNHKPSNTKVDKKV[letters of human IgG1 Fc with changes omitted]
light: B4 light
B6: huAb13v1-KZ (conjugate)
heavy: EVQLQESGPGLVKPSETLSLTCAVTGYSITSGYSWHWIRQFPGNGLEWMGYIHSSGSTNYNPSLKSRISISRDTSKNQFFLKLSSVTAADTAVYYCAGYDDYFEYWGQGTTVTVSSASTKGPSVFPLAPSSKSTSGGTAALGCLVKDYFPEPVTVSWNSGALTSGVHTFPAVLQSSGLYSLSSVVTVPSSSLGTQTYICNVNHKPSNTKVDKKV[letters of human IgG1 Fc with changes omitted]
light: B4 light
B7: huAb13v1-ZZ (conjugate)
heavy: EVQLQESGPGLVKPSETLSLTCAVTGYSITSGYSWHWIRQFPGNGLEWMGYIHSSGSTNYNPSLKSRISISRDTSKNQFFLKLSSVTAADTAVYYCAGYDDYFEYWGQGTTVTVSSASTKGPSVFPLAPSSKSTSGGTAALGCLVKDYFPEPVTVSWNSGALTSGVHTFPAVLQSSGLYSLSSVVTVPSSSLGTQTYICNVNHKPSNTKVDKKV[letters of human IgG1 Fc with changes omitted]
light: B4 light
B8: huAb13v1-ZT (conjugate)
heavy: EVQLQESGPGLVKPSETLSLTCAVTGYSITSGYSWHWIRQFPGNGLEWMGYIHSSGSTNYNPSLKSRISISRDTSKNQFFLKLSSVTAADTAVYYCAGYDDYFEYWGQGTTVTVSSASTKGPSVFPLAPSSKSTSGGTAALGCLVKDYFPEPVTVSWNSGALTSGVHTFPAVLQSSGLYSLSSVVTVPSSSLGTQTYICNVNHKPSNTKVDKKV[letters of human IgG1 Fc with changes omitted]
light: B4 light
B9: huAb13v1-YG (conjugate)
heavy: EVQLQESGPGLVKPSETLSLTCAVTGYSITSGYSWHWIRQFPGNGLEWMGYIHSSGSTNYNPSLKSRISISRDTSKNQFFLKLSSVTAADTAVYYCAGYDDYFEYWGQGTTVTVSSASTKGPSVFPLAPSSKSTSGGTAALGCLVKDYFPEPVTVSWNSGALTSGVHTFPAVLQSSGLYSLSSVVTVPSSSLGTQTYICNVNHKPSNTKVDKKV[letters of human IgG1 Fc with changes omitted]
light: B4 light
B10: huAb13v1-SE (conjugate)
heavy: EVQLQESGPGLVKPSETLSLTCAVTGYSITSGYSWHWIRQFPGNGLEWMGYIHSSGSTNYNPSLKSRISISRDTSKNQFFLKLSSVTAADTAVYYCAGYDDYFEYWGQGTTVTVSSASTKGPSVFPLAPSSKSTSGGTAALGCLVKDYFPEPVTVSWNSGALTSGVHTFPAVLQSSGLYSLSSVVTVPSSSLGTQTYICNVNHKPSNTKVDKKV[letters of human IgG1 Fc with changes omitted]
light: B4 light
B11: huAb13v1-LB (conjugate)
heavy: EVQLQESGPGLVKPSETLSLTCAVTGYSITSGYSWHWIRQFPGNGLEWMGYIHSSGSTNYNPSLKSRISISRDTSKNQFFLKLSSVTAADTAVYYCAGYDDYFEYWGQGTTVTVSSASTKGPSVFPLAPSSKSTSGGTAALGCLVKDYFPEPVTVSWNSGALTSGVHTFPAVLQSSGLYSLSSVVTVPSSSLGTQTYICNVNHKPSNTKVDKKV[letters of human IgG1 Fc with changes omitted]
light: B4 light
B12: huAb3v2.6-LB (conjugate)
heavy: EVQLVQSGAEVKKPGSSVKVSCKASGYTFSSYWMHWVRQAPGQGLEWIGLIHPESGSTNYNEMFKNRATLTVDRSTSTAYMELSSLRSEDTAVYYCAGGGRLYFDYWGQGTTVTVSSASTKGPSVFPLAPSSKSTSGGTAALGCLVKDYFPEPVTVSWNSGALTSGVHTFPAVLQSSGLYSLSSVVTVPSSSLGTQTYICNVNHKPSNTKVDKKV[letters of human IgG1 Fc with changes omitted]
light: B1 light with R34Q

Test: DAR of ADC by LC-MS
Details: ADC as conjugated (Method A, E or G)
Protocol: The DAR and percentage aggregation of ADCs synthesized were determined by LC-MS and size exclusion chromatography (SEC), respectively.
LC-MS analysis was performed using an Agilent 1100 HPLC system interfaced to an Agilent LC/MSD TOF 6220 ESI mass spectrometer. The ADC was reduced with 5 mM (final concentration) Bond-Breaker® TCEP solution (Thermo Scientific, Rockford, Ill.), loaded onto a Protein Microtrap (Michrom Bioresorces, Auburn, Calif.) desalting cartridge, and eluted with a gradient of 10% B to 75% B in 0.2 minutes at ambient temperature. Mobile phase A was H2O with 0.1% formic acid (FA), mobile phase B was acetonitrile with 0.1% FA, and the flow rate was 0.2 mL/min. Electrospray-ionization time-of-flight mass spectra of the co-eluting light and heavy chains were acquired using Agilent MassHunter™ acquisition software. The extracted intensity vs. m/z spectrum was deconvoluted using the Maximum Entropy feature of MassHunter software to determine the mass of each reduced antibody fragment. DAR was calculated from the deconvoluted spectrum by summing intensities of the naked and modified peaks for the light chain and heavy chain, normalized by multiplying intensity by the number of drugs attached. The summed, normalized intensities were divided by the sum of the intensities, and the summing results for two light chains and two heavy chains produced a final average DAR value for the full ADC.

Molecule	DAR by MS
B1	2.6
B2	1.2
B3	1.7
B4	3
B5	2.6
B6	2.8
B7	1.4
B8	2.4
B9	3.3
B10	3.7
B11	2.2

Test: Aggregation of conjugates by SEC
Type: physicochemical
Details: ADC as conjugated (Method A, E or G)

Molecule	% agg by SEC [%]
B12	27.2
B1	24.5
B2	70.7
B3	21.6
B4	5.4
B5	49.5
B6	16.8
B7	20.3
B9	2.1
B10	4
B11	21.9
